Test results: PubChem BioAssay AID1347165 (National Center for Advancing Translational Sciences (NCATS), 2019)
Among all 220,000 compounds or so, about 5,700 (2.6%) were called active. This list was built around the results that the source calls inconclusive (neither active nor inactive); the mix of calls is not that of the screen. The call rests on the fitted dose curve; in most records, active means well fitted inhibition curve with a large enough effect; inconclusive means small, poorly fitted or top-dose-only effect; inactive means no such curve, though single readings can be large or run the other way. A potency beside an inconclusive call is a rough fit, not a confirmed value.

target: Lysine-specific demethylase 5B (Homo sapiens) (UniProt Q9UGL1); experiment: Primary screen for KDM5B Histone Demethylases FDH-coupled qHTS; settings: FDH-coupled NADH fluorescence (FDH is formaldehyde dehydrogenase); activity change, negative = inhibition: at 57.7 µM (top of the series) unless noted; further: nearly all actives have a fitted effect of over 70% in size; on activity change, negative = inhibition: 0% is about no effect
Chain of UniProt Q9UGL1 (Q9UGL1 whole entry, looked up): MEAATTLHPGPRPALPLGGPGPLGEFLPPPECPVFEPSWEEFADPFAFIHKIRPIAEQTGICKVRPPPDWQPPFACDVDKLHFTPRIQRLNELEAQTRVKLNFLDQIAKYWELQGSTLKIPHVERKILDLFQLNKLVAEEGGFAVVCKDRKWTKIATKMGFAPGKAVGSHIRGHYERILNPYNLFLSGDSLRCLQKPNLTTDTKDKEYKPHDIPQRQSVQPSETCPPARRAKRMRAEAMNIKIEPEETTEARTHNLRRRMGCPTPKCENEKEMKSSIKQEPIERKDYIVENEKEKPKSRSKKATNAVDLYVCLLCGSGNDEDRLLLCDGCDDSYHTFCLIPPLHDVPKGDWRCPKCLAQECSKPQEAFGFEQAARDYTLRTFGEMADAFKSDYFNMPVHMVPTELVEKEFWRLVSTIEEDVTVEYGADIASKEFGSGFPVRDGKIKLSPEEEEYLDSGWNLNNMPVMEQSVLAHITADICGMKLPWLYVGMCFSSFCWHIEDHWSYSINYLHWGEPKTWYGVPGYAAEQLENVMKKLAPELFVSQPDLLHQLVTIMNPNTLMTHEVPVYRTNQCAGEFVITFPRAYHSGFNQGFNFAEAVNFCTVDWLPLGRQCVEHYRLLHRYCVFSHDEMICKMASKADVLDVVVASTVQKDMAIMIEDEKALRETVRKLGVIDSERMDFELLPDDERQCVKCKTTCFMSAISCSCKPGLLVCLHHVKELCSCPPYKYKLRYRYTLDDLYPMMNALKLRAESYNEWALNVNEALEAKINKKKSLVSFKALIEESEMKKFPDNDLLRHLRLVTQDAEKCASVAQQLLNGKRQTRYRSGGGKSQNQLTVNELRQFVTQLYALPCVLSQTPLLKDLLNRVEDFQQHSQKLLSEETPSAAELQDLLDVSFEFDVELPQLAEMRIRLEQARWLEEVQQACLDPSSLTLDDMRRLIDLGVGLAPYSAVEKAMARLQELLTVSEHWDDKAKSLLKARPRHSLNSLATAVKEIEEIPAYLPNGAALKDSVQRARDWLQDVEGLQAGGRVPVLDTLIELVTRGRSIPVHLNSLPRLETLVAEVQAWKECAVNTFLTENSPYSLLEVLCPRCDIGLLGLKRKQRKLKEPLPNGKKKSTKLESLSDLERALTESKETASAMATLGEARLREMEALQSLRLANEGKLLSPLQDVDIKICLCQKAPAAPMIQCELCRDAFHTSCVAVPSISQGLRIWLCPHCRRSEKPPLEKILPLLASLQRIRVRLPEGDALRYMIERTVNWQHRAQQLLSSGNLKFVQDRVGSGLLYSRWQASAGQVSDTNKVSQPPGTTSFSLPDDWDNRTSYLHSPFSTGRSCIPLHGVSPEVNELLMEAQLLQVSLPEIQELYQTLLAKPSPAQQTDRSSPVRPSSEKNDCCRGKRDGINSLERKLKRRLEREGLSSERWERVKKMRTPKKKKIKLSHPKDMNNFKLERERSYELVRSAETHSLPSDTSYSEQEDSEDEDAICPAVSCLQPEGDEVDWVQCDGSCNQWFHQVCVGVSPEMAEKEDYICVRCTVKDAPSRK
Procedure, shortened: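 Measured: NADH fluorescence change, 30 min, RT. System: KDM5BΔAP 200 nM final, H3K4me3 peptide, α-KG, Fe(II), ascorbate, NAD⁺ plus FDH, pH 7.5 HEPES. Compounds: titrated, 10 min pre-incubation with enzyme.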
Potency means the concentration at half of the fitted maximal effect; tags describe the fitted curve by direction and shape.

SMILES | Potency | activity change, negative = inhibition
O=C(C1CC1)N1C[C@@H]2OCC(=O)N(Cc3ccncc3)[C@@H]2C1 | inconclusive: 28.2 µM [inhibitor, partial curve, poor fit] | –
Cc1cccc(-n2nnnc2SCCCn2c(=O)c3c(ncn3C)n(C)c2=O)c1 | inconclusive: 25.1 µM [inhibitor, partial curve, poor fit] | –
COc1ccc(C)cc1NC(=O)CSc1nc2ccsc2c(=O)n1-c1ccccc1 | inconclusive: 20 µM [inhibitor, partial curve, poor fit] | –
O=C1COc2ccc(-c3csc(Nc4ccccc4C(F)(F)F)n3)cc2N1 | – | inactive: -15.2%
COc1ccc2[nH]c3c(c2c1)CCNC31CCN(C(=O)c2cc(C)n(C)n2)CC1 | inconclusive: 25.1 µM [inhibitor, partial curve, poor fit] | –
N#CC(C(=O)C1c2ccccc2Oc2ccccc21)c1nc2ccccc2[nH]1 (stereo unspecified) | inconclusive: 39.8 µM [inhibitor, single point] | –
COc1ccccc1-c1nc(C2CC(=O)N(c3ccc(F)c(Cl)c3)C2)no1 (stereo unspecified) | inconclusive: 28.2 µM [inhibitor, partial curve, poor fit] | –
Cc1noc(C)c1-c1cc(-c2cnn(C)c2)cn2cncc12 | active: 39.8 µM | –
O=C(NC1CC1)c1nc(-c2ccc(Cl)cc2Cl)c2ccccn12 | active: 28.2 µM | –
COc1ccc(-c2[nH]ncc2C(=O)NC2CCCc3c2[nH]c2ccccc32)cc1 (stereo unspecified) | inconclusive: 17.8 µM [inhibitor, partial curve] | –
CCOC(=O)c1ccc2c(c1)sc1nc(-c3ccc(OCC)cc3)cn12 | inconclusive: 10 µM [inhibitor, partial curve, poor fit] | –
CCn1cc(C(=O)NCCC(=O)OC)c(=O)c2cc3c(cc21)OCO3 | inconclusive: 20 µM [inhibitor, partial curve, poor fit] | –
O=C(CCC1CCCN(S(=O)(=O)c2ccccc2)C1)NCC1CC1 (stereo unspecified) | active: 20 µM | –
O=c1ccc2cc(S(=O)(=O)N3CCCCC3)ccc2o1 | – | inactive: 18.4%
CC(C)c1nn2c(=O)cc(COC(=O)c3cccc(NC(=O)c4ccccc4F)c3)nc2s1 | inconclusive: 10 µM [inhibitor, partial curve, poor fit] | –
CC(C)c1ccc(-c2csc(NC(=O)Cn3cnc4c3c(=O)n(C)c(=O)n4C)n2)cc1 | – | inactive: 6.84%
COC(=O)c1cc2c(Br)cc(OC)c(OC)c2[nH]1 | inconclusive: 22.4 µM [inhibitor, partial curve, poor fit] | –
CCc1cccc(NC(=O)c2ncoc2-c2cccs2)c1 | – | inactive: -22.4%
O=C(Nc1cccc(F)c1)c1nnc(CSCC(=O)N2CCOCC2)s1 | – | inactive: 16%
O=C1COc2ccc(-c3ccncc3)nc2CN1Cc1ccccc1F | active: 35.5 µM | –
CCCCOc1cccc(C(=O)Nc2ccc(OCCC)c3ncccc23)c1 | – | inactive: 6.28%
Cc1c(-c2ccc(Cl)cc2)c(=O)oc2c(CN3CCN(C)CC3)c(O)ccc12 | inconclusive: 2.82 µM [inhibitor, full curve, poor fit] | –
CCc1ccc(-n2nnnc2N2CCN(C(=O)Nc3ccc(C)c(F)c3)CC2)cc1 | – | inactive: -6.42% [at 115 µM]
COC(=O)c1cc(N2CCOCC2)ccc1N | inconclusive: 1.78 µM [inhibitor, full curve, poor fit] | –

SMILES | Potency | activity change, negative = inhibition
Cc1c(C)c2ccc(OC(C)C(=O)NCCN3CCOCC3)c(C)c2oc1=O (stereo unspecified) | inconclusive: 28.2 µM [inhibitor, partial curve, poor fit] | –
O=C(Cc1cccc(Cl)c1)N1CCCN(c2nc3ncccc3o2)CC1 | – | inactive: -14.6%
O=C(c1ccoc1)N1CCc2onc(C(c3ccccc3)c3ccccc3)c2C1 | inconclusive: 20 µM [inhibitor, partial curve, poor fit] | –
CCc1nc2ccc(C(=O)NCCCN(CC)CC)cc2nc1CC | – | inactive: -4.96%
Cc1noc(C)c1S(=O)(=O)N1CC[C@@H]2C(=O)NCCCCCCN(Cc3ccncc3)[C@@H]2C1 | inconclusive: 22.4 µM [inhibitor, partial curve, poor fit] | –
OC1CCOC2(CCN(Cc3cccc4[nH]ccc34)CC2)C1 (stereo unspecified) | inconclusive: 17.8 µM [inhibitor, single point] | –
CC1=CCC(/C=N/NC(N)=O)CC1 (stereo unspecified) | – | inactive: -19.9%
Cc1ccc(C)c(C(=O)Nc2ccc3oc(C)nc3c2)c1 | – | inactive: 18.5%
CN1CCN(C(=O)c2cccnc2-c2nc3ccccc3s2)CC1 | inconclusive: 1 µM [inhibitor, partial curve, poor fit] | –
Cc1ncsc1CN1CCCCCNC(=O)[C@@H]2CCC[C@@H]21 | inconclusive: 39.8 µM [inhibitor, single point] | –
COCCNC(=O)c1nc2c(o1)CCN(Cc1ccc(F)c(Cl)c1)CC2 | inconclusive: 20 µM [inhibitor, partial curve] | –
Nc1ccc(-c2ccc(OCCn3ccnc3)cc2)cn1 | inconclusive: 14.1 µM [inhibitor, partial curve, poor fit] | –
COc1ccc(C)cc1CN(C)C(=O)Cn1c(=O)c2c(ncn2C)n(C)c1=O | – | inactive: 27.1%
CN(C)c1ccc(C(=O)N/N=C/c2cc(Br)cc(Br)c2O)cc1 | inconclusive: 3.16 µM [inhibitor, full curve, poor fit] | –
CCc1ccc(S(=O)(=O)c2nnn3c2nc(N2CCC4(CC2)OCCO4)c2sccc23)cc1 | – | inactive: 27.2%
CCc1cc(=O)oc2cc(OC(C)C(=O)Nc3ccccc3F)ccc12 (stereo unspecified) | inconclusive: 28.2 µM [inhibitor, partial curve, poor fit] | –
CCN(CC)C(=O)COc1ccc(-c2noc(-c3ccccc3)n2)cc1OC | inconclusive: 22.4 µM [inhibitor, single point] | –
CCc1ccc(C(=O)COC(=O)CNC(=O)c2ccccc2)cc1 | – | inactive: 8.19%
O=c1[nH]nc(SCc2ncc(-c3cccc(Cl)c3)o2)n1C1CC1 | – | inactive: 8.07%
COc1ccc(NC(=O)c2cc(-c3ccco3)nc3c2cnn3C(C)C)cc1OC(F)F | inconclusive: 39.8 µM [inhibitor, single point] | –
C#CCNC(=O)c1cc(-c2ccccc2)nc2ccccc12 | inconclusive: 25.1 µM [inhibitor, single point] | –
CCOc1ccc2c(c1)c(=O)c(S(=O)(=O)c1ccc(CC)cc1)cn2CC | inconclusive: 28.2 µM [inhibitor, partial curve, poor fit] | –
Fc1cccc(-c2nc(COc3ccc(Br)cc3F)co2)c1 | – | inactive: 12.9%
CN(C)C[C@@H]1CN(Cc2ccccc2)C[C@H]1NC(=O)Cc1cccnc1 | inconclusive: 15.8 µM [inhibitor, partial curve] | –

SMILES | Potency | activity change, negative = inhibition
CCOC(=O)C(NC(=O)/C=C/c1c(F)cccc1Cl)C(=O)OCC | – | inactive: 27.5%
Cc1nc(CC(=O)NCc2ccc3[nH]c(-c4ccc(F)cc4)c(C)c3c2)cs1 | active: 31.6 µM | –
Cc1nc(Cc2nn3c(-c4ccc(F)c(Br)c4)nnc3s2)cs1 | – | inactive: -0.562%
COc1ccc(C(=O)N[C@@H]2CCC[C@@H]2C(=O)N2CCN(c3ccccn3)CC2)cn1 | inconclusive: 39.8 µM [inhibitor, partial curve, poor fit] | –
Cc1cc(/C=C2\SC(=O)N(C)C2=O)c(C)n1-c1cccc(C(=O)O)c1 | inconclusive: 31.6 µM [inhibitor, partial curve, poor fit] | –
O=C(c1cc(-c2ccc(F)cc2)nc2ccccc12)N1CCN(Cc2ccncc2)CC1 | – | inactive: -5.1%
COc1ccc(C(=O)N[C@@H]2CCC[C@@H]2C(=O)NCc2ccc(C)o2)cc1 | – | inactive: -12.6%
COc1ccccc1CC(=O)N1CCC(n2cc(-c3nc(C)no3)nn2)CC1 | – | inactive: -9.17%
COCCN1CCCCCC(O)c2cc(C(=O)NCCc3ccccn3)ccc21 (stereo unspecified) | inconclusive: 39.8 µM [inhibitor, single point] | –
CC(C)c1ccc(Nc2cc(C(=O)NCCCN(C)Cc3ccccc3)c3ccccc3n2)cc1 | inconclusive: 28.2 µM [inhibitor, single point] | –
COCCNC(=O)Cc1csc2nc(C)c(-c3cc(C)n(-c4ccccc4F)n3)c(=O)n12 | active: 28.2 µM | –
Cc1cc(Nc2ccccc2F)n2nc(Cc3ccc(Cl)cc3)nc2n1 | inconclusive: 15.8 µM [inhibitor, partial curve, poor fit] | –
COc1ccc2cc(C(=O)N(Cc3ccc(C)o3)C3CC3)[nH]c2c1 | inconclusive: 39.8 µM [inhibitor, single point] | –
COc1ccccc1NC(=O)N1CCCC(Cn2c(C)nc3cccnc32)C1 (stereo unspecified) | – | inactive: 6.66%
Cc1oc(-c2ccc(C(=O)NCCCOC(C)C)cc2)nc1CS(=O)(=O)c1ccccc1 | inconclusive: 28.2 µM [inhibitor, partial curve, poor fit] | –
COc1cccc(SCC(=O)c2ccc3c(c2)CCC(=O)N3)c1 | – | inactive: -29.8%
C[C@H](NC(=O)C[C@@H]1c2nc(NC(=O)c3ccc(F)cc3)sc2C[C@@H]2[C@](C)(CO)[C@H](O)CC[C@]21C)c1ccccc1 | active: 31.6 µM | –
Cn1c(=O)c2nc(SCC(=O)c3ccc(Cl)cc3)n(C)c2n(C)c1=O | – | inactive: -0.898%
CC(OC(=O)CCCc1c[nH]c2ccccc12)C(=O)NC(N)=O (stereo unspecified) | – | inactive: -1.4%
Nc1nccnc1C(=O)NCCc1ccccc1F | inconclusive: 22.4 µM [inhibitor, partial curve, poor fit] | –
O=C(c1cc(Cl)ccc1F)N1CCCN(c2cc(-c3ccccc3)[nH]n2)CC1 | inconclusive: 20 µM [inhibitor, partial curve, poor fit] | –
Cc1nc2cc(F)ccc2cc1C(=O)NC1CCC(C)CC1 (stereo unspecified) | – | inactive: -10%
CCC(CC)C(=O)N1CCCN(S(C)(=O)=O)c2ccccc21 | – | inactive: -10%
